Results reported in the supplement of paper PMC10600219.
Several values for one entry are separate records, joined by “and”; a condition that tells them apart may be missing. Equal values may be shown once. Where a name gives a salt, the structure may show the parent alone. Over roughly 2,800 compounds, “cell viability relative to vehicle” has its median near 0.98; the lowest 2% begin near 0.45. The list shows a part of the results.

Test system: NCI-H2228 alectinib-DTP
Test: cell viability relative to vehicle (fraction of vehicle); NCI-H2228 is an ALK-positive lung cancer line and DTP means drug-tolerant persister; higher = less growth inhibition
Settings: 100 nM; treatment time 6 days
Method in brief: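 Each value is viability relative to vehicle-treated cells, measured as ATP with the CellTiter-Glo 3D Cell Viability Assay. Parental NCI-H2228 cells and drug-tolerant persisters (1000 nM targeted drug, 13 days) in 384-well plates received the 3114-agent TargetMol anti-cancer compound library at 100 nM, or DMSO, and were read 6 days later.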

| SMILES | cell viability |
| --- | --- |
| CC(C(=O)O)c1cccc(Oc2ccccc2)c1 (stereo unspecified) [Fenoprofen calcium dihydrate] | 1 |
| CCn1cc(C(=O)O)c(=O)c2cc(F)c(N3CCNCC3)nc21 [Enoxacin] | 0.992 |
| CCn1cc(C(=O)O)c(=O)c2cc(F)c(N3CCNCC3)nc21 [Enoxacin Sesquihydrate] | 1.12 |
| CCCCCCCCC(=O)N[C@H](CN1CCCC1)[C@H](O)c1ccc2c(c1)OCCO2 | 1.25 |
| CC(=O)OCC(=O)NCCCOc1cccc(CN2CCCCC2)c1 [Roxatidine Acetate hydrochloride] | 1.05 |
| OC[C@@H](O)[C@@H](O)[C@H](O)[C@H](O)CO [D-Mannitol] | 1.16 |
| COc1cc2c(c(OC)c1OC)-c1c(cc3c(c1OC)OCO3)C[C@H](C)[C@](C)(O)C2 [Gomisin A] | 1.07 |
| CONC(=O)c1ccccc1Nc1cc(Nc2cc(C)nn2C(C)C)ncc1Cl | 0.889 |
| O=C(COc1c(Cl)cc(Cl)cc1Cl)N/N=C/c1ccc[nH]1 | 0.956 |
| CC(=Cc1ccc(C(=O)O)cc1)c1ccc2c(c1)C(C)(C)CCC2(C)C | 0.884 |
| COc1cc(Br)c(Nc2nc(-c3c(C)nc4ncccn34)cs2)c(Br)c1 | 0.992 |
| O=C(O)CCCCCCCC(=O)O [Azelaic acid] | 0.938 |
| FC(F)(F)C(Cl)Br (stereo unspecified) [Anestan] | 1.04 |
| Cc1ccc(C(=O)c2ccc(CC(=O)O)n2C)cc1 [Tolmetin] | 1.05 |
| COC(=O)Nc1nc2cc(C(=O)c3cccs3)ccc2[nH]1 [Nocodazole] | 0.557 |
| CC(=O)OCC(=O)[C@@]1(O)CC[C@H]2[C@@H]3CCC4=CC(=O)C=C[C@]4(C)[C@@]3(Cl)[C@@H](Cl)C[C@@]21C [Dichlorisone Acetate] | 0.731 |
| CC(C)Oc1ccc(-c2c[nH]cc2CN(C)CCN)cc1 | 0.835 |
| CCN[C@H]1CN(CCCOC)S(=O)(=O)c2sc(S(N)(=O)=O)cc21 [Brinzolamide] | 1.13 |
| CNS(=O)(=O)c1ccccc1Nc1nc(Nc2ccc(N3CCN(C)CC3)cc2OC)ncc1Cl [ALK inhibitor 2] | 1 |
| CC(C)c1c(C(=O)Nc2ccccc2)c(-c2ccccc2)c(-c2ccc(F)cc2)n1CC[C@@H](O)C[C@@H](O)CC(=O)O [Atorvastatin Calcium] | 1 |
| CC(C)(C)c1cnc(CSc2cnc(NC(=O)C3CCNCC3)s2)o1 | 0.733 |
| Nc1[nH]cnc2ncnc1-2 [Adenine hydrochloride] | 1.01 |
| N=C1CCCN1Cc1[nH]c(=O)[nH]c(=O)c1Cl [Tipiracil hydrochloride] | 1 |
| NC(=O)NCCC(=O)O [3-Ureidopropionic acid] | 0.979 |

| SMILES | cell viability |
| --- | --- |
| C[C@@H]1Cc2c([nH]c3ccccc23)[C@@H](c2c(F)cc(/C=C/C(=O)O)cc2F)N1CC(C)(C)F | 0.962 |
| CC(=O)Nc1cccc(-n2c(=O)n(C3CC3)c(=O)c3c(Nc4ccc(I)cc4F)n(C)c(=O)c(C)c32)c1 [Trametinib] | 0.6 |
| OC(Cn1cncn1)(Cn1cncn1)c1ccc(F)cc1F [Fluconazole] | 1.1 |
| NCCc1c[nH]cn1 [Histamine] | 0.98 |
| NCCc1c[nH]cn1 [Histamine 2HCl] | 1.05 |
| Cc1ccc(-c2csc3ncnc(SCCC(=O)O)c23)cc1 | 0.869 |
| CC1(C)CC[C@]2(C(=O)O)CC[C@]3(C)C(=CC[C@@H]4[C@@]5(C)C[C@@H](O)[C@H](O)C(C)(C)[C@@H]5CC[C@]43C)[C@@H]2C1 [Maslinic acid] | 0.962 |
| Cc1cn[nH]c1 [4-Methylpyrazole] | 1.12 |
| CN(C)C/C=C/C(=O)Nc1ccc(C(=O)Nc2cccc(Nc3ncc(Cl)c(-c4c[nH]c5ccccc45)n3)c2)cc1 | 0.346 |
| O=C1NC(=O)C(c2cnc3ccccn23)=C1c1cn2c3c(cc(F)cc13)CN(C(=O)N1CCCCC1)CC2 | 0.476 |
| O=C(NC[C@H](O)CN1CCc2ccccc2C1)c1cc(NC2COC2)ncn1 | 0.973 |
| COc1cc2ncnc(Sc3nnc(C)s3)c2cc1OC | 1.07 |
| CNC1CCCN(c2c(F)cc3c(=O)c(C(=O)O)cn(C4CC4)c3c2OC)C1 (stereo unspecified) [Balofloxacin] | 1.12 |
| CC1(C)CC[C@]2(C(=O)O)CC[C@]3(C)C(=CC[C@@H]4[C@@]5(C)CC[C@H](O[C@@H]6O[C@H](C(=O)O)[C@@H](O)[C@H](O[C@@H]7OC[C@@H](O)[C@H](O)[C@H]7O)[C@H]6O)C(C)(C)[C@@H]5CC[C@]43C)[C@@H]2C1 [Momordin Ic] | 1 |
| CC[C@H]1[C@@H](O)[C@@H]2[C@H](CC[C@]3(C)[C@@H]([C@H](C)CCC(=O)O)CC[C@@H]23)[C@@]2(C)CC[C@@H](O)C[C@@H]12 [Obeticholic Acid] | 0.788 |
| C[C@@H](Oc1ccc2[nH]nc(/C=C/c3cnn(CCO)c3)c2c1)c1c(Cl)cncc1Cl | 0.773 |
| C[C@H]1O[C@H](O[C@H]2[C@H](O)[C@@H](O)[C@@H](O[C@H]3[C@H](O)[C@@H](O)C(O)O[C@@H]3CO)O[C@@H]2CO)[C@H](O)[C@@H](O)[C@@H]1N[C@H]1C=C(CO)[C@@H](O)[C@H](O)[C@H]1O (stereo partly specified) [Acarbose] | 0.998 |
| N=C(N)NC(=N)NCCc1ccccc1 [Phenformin hydrochloride] | 1.07 |
| O=c1[nH]c(C2CCCN2)nc2c1oc1ccc(Cl)cc12 (stereo unspecified) [XL413 hydrochloride] | 0.981 |
| CO[C@H]1/C=C/O[C@@]2(C)Oc3c(C)c(O)c4c(O)c(c(/C=N/N5CCN(C6CCCC6)CC5)c(O)c4c3C2=O)NC(=O)/C(C)=C\C=C\[C@H](C)[C@H](O)[C@@H](C)[C@@H](O)[C@@H](C)[C@H](OC(C)=O)[C@@H]1C [Rifapentine] | 1.08 |
| CC(C)Oc1ccc(-c2nc(-c3cccc4c3CC[C@@H]4NCCO)no2)cc1C#N [Ozanimod] | 0.913 |
| CN1CCC(=C2c3ccccc3C=Cc3ccccc32)CC1 [Cyproheptadine hydrochloride] | 1.17 |
| C[C@@H](CC[C@@]1(O)O[C@H]2C[C@H]3[C@@H]4CC[C@@H]5C[C@@H](O[C@@H]6O[C@H](CO)[C@H](O)[C@H](O)[C@H]6O[C@@H]6O[C@H](CO)[C@@H](O)[C@H](O)[C@H]6O)CC[C@]5(C)[C@H]4CC[C@]3(C)[C@H]2[C@@H]1C)CO[C@@H]1O[C@H](CO)[C@@H](O)[C@H](O)[C@H]1O [Timosaponin BII] | 0.983 |
| COc1cc2c(NC3CCN(C(C)C)CC3)nc(C3CCCCC3)nc2cc1OCCCN1CCCC1 | 1.15 |

| SMILES | cell viability |
| --- | --- |
| CC(Cc1cccc(C(F)(F)F)c1)NCCOC(=O)c1ccccc1 (stereo unspecified) [Benfluorex hydrochloride] | 0.815 |
| O=C(O)[C@]1(Cc2cccc(Nc3nccs3)n2)CC[C@@H](Oc2cccc(Cl)c2F)CC1 | 0.98 |
| CC(=O)Nc1ccc(C(=O)Nc2ccccc2N)cc1 | 0.923 |
| COc1cccc2c1c(O)c(C(=O)N(C)c1ccc(C(F)(F)F)cc1)c(=O)n2C [Tasquinimod] | 1.03 |
| C#Cc1cccc(Nc2ncnc3cc(OC)c(OCCCCCCC(=O)NO)cc23)c1 | 0.97 |
| O=S(=O)(c1ccc2c(c1)C(=NO)c1cc(S(=O)(=O)N3CCCCC3)ccc1-2)N1CCCCC1 | 1.06 |
| CC(=O)S[C@@H]1CC2=CC(=O)CC[C@]2(C)[C@H]2CC[C@@]3(C)[C@@H](CC[C@@]34CCC(=O)O4)[C@H]12 [Abbolactone] | 1.05 |
| CN1CCN(C(=O)/C=C/c2ccc([N+](=O)[O-])o2)CC1 | 1.04 |
| CN(CC(=O)N(Cc1ccc(C2CCCCC2)cc1)c1ccc(C(=O)O)c(O)c1)S(=O)(=O)c1c(F)c(F)c(F)c(F)c1F | 0.885 |
| Cc1nccnc1N1CCCCC1 [Modaline sulfate] | 1.07 |
| Nc1nc(Nc2ccc3c(c2)CC[C@@H](N2CCCC2)CC3)nn1-c1cc2c(nn1)-c1ccccc1CCC2 [Bemcentinib] | 0.901 |
| CC(C)(O)[C@H]1CC[C@@](C)([C@H]2[C@@H](O)C[C@@]3(C)[C@@H]4C[C@H](O[C@@H]5O[C@H](CO)[C@@H](O)[C@H](O)[C@H]5O)[C@H]5C(C)(C)[C@@H](O[C@@H]6OC[C@@H](O)[C@H](O)[C@H]6O)CC[C@@]56C[C@@]46CC[C@]23C)O1 [Astragaloside A] | 0.983 |
| O=C(Nc1cccc(C(F)(F)F)c1)c1cccc2cc(Oc3cc(CO)ncn3)ccc12 | 0.987 |
| O=C(Nc1ccc(O)c(C(=O)O)c1)c1cccc(NC(=O)c2ccco2)c1 | 1.18 |
| N#Cc1ccc(C(c2ccc(C#N)cc2)n2cncn2)cc1 [Letrozole] | 0.854 |
| Clc1ccc(CCC(Cn2ccnc2)Sc2c(Cl)cccc2Cl)cc1 (stereo unspecified) [Butoconazole nitrate] | 1.07 |
| C[C@@]1(C(=O)Nc2ccc(F)nc2)CCCN1c1nc(Nc2cc(C3CC3)n[nH]2)c2cccn2n1 | 0.601 |
| CCCCCCCCCCCCCCCCCCOCC(O)CO (stereo unspecified) [Batyl alcohol] | 1.05 |
| C[N+]1(C)CCC(OC(=O)C(O)(c2ccccc2)C2CCCC2)C1 (stereo unspecified) [Glycopyrrolate] | 0.8 |
| O=C(O)c1ccc(S(=O)(=O)NC2CCCCC2)cc1 | 0.943 and 1.05 |
| CCOC(=O)[C@@H](N)Cc1ccc(-c2cc(O[C@H](c3ccc(Cl)cc3-n3ccc(C)n3)C(F)(F)F)nc(N)n2)cc1 [Telotristat Etiprate] | 0.959 |
| CN1CCN(C2=Nc3ccccc3Oc3ccc(Cl)cc32)CC1 [Loxapine succinate salt] | 0.902 |
| CC1(C)CC[C@]2(C(=O)O[C@@H]3O[C@H](CO)[C@@H](O)[C@H](O)[C@H]3O)CC[C@]3(C)C(=CC[C@@H]4[C@@]5(C)CC[C@H](O[C@@H]6O[C@H](C(=O)O)[C@@H](O)[C@H](O)[C@H]6O)C(C)(C)[C@@H]5CC[C@]43C)[C@@H]2C1 [Chikusetsusaponin IVa] | 1.1 |
